PMC5515408
The list shows a part of the results. At the low end of the ranking, values are background and their order means little.

The sequences below were run against MAX:MAX (p21) (UniProt P61244-2) (assay: protein-binding microarray (anti-MAX antibody)). Settings: PBM: 15 mM Tris-HCl pH 7.5, 100 mM KCl, 0.075% NP40, 7.5 mM beta-mercaptoethanol, 375 ng/ul BSA, 8 ng/ul poly(dA-dT):(dA-dT), 550 ng complex, 60 min, room …; high values mean tight binding; double strand, one strand shown; sequences stand for … in CCGGC…TTAATAGCTAAGATTACTATATCGACG.
Work on TGATAGGCGGTA yielded a binding signal (log2 normalized fluorescence) of -0.657.
Sequence TGACCAGCAGTA has a binding signal (log2 normalized fluorescence) of 0.131.
With TGACGCTTAGTA the binding signal (log2 normalized fluorescence) was -0.599.
In the case of TGATGAGACGTA, the binding signal (log2 normalized fluorescence) is reported as -0.441.
TGACACTCGGTA gave a binding signal (log2 normalized fluorescence) of 0.352.
Sequence TGAACTCCAGTA has a binding signal (log2 normalized fluorescence) of -0.79.
TGAGGTAGAGTA gave a binding signal (log2 normalized fluorescence) of -0.816.
Work on TGAGCTGGCGTA yielded a binding signal (log2 normalized fluorescence) of -0.687.
Work on TGACAATACGTA yielded a binding signal (log2 normalized fluorescence) of -0.1.
Sequence TGACGATGAGTA has a binding signal (log2 normalized fluorescence) of -0.407.
Work on TGAAACGTGGGA yielded a binding signal (log2 normalized fluorescence) of 2.73.
TGAATACACGTA gave a binding signal (log2 normalized fluorescence) of 0.221.
Sequence TGATAGCTCGTA has a binding signal (log2 normalized fluorescence) of -1.12.
In the case of TGATCGGATGTA, the binding signal (log2 normalized fluorescence) is reported as -0.344.
For TGAGTTTTGGTA, the binding signal (log2 normalized fluorescence) was -1.18.
TGACTTGACGTA was tested, and the binding signal (log2 normalized fluorescence) was -0.392.
TGAAAACTAGTA gave a binding signal (log2 normalized fluorescence) of -0.875.
TGAGCGCTCGTA gave a binding signal (log2 normalized fluorescence) of -0.608.
Work on TGATTCATTGTA yielded a binding signal (log2 normalized fluorescence) of -0.754.
TGAGCACGTGTA was tested, and the binding signal (log2 normalized fluorescence) was 3.28.
With TGATCGGAAGTA the binding signal (log2 normalized fluorescence) was -0.874.
Sequence TGAGTGATGGTA has a binding signal (log2 normalized fluorescence) of -0.0812.
In the case of TGATGTTATGTA, the binding signal (log2 normalized fluorescence) is reported as -0.0821.
In the case of TGACAAGGCGTA, the binding signal (log2 normalized fluorescence) is reported as -0.259.
TGAACACGCGTA showed a binding signal (log2 normalized fluorescence) of 2.86.
TGATCCATTGTA was tested, and the binding signal (log2 normalized fluorescence) was -0.567.
TGATCTCAAGTA showed a binding signal (log2 normalized fluorescence) of -0.88.
Sequence TGAGGCATAGTA has a binding signal (log2 normalized fluorescence) of -0.791.
With AAATACGTGGTA the binding signal (log2 normalized fluorescence) was 1.85.
Sequence TGAGTGTCCGTA has a binding signal (log2 normalized fluorescence) of 0.0672.
Work on TGATAGCAAGTA yielded a binding signal (log2 normalized fluorescence) of -0.425.
TGAGCGCTTGTA was tested, and the binding signal (log2 normalized fluorescence) was -0.403.
TGAACTAATGTA showed a binding signal (log2 normalized fluorescence) of -0.668.
With TGAGGAGTCGTA the binding signal (log2 normalized fluorescence) was -0.861.
In the case of TGATTGCTAGTA, the binding signal (log2 normalized fluorescence) is reported as -0.863.
TGATACAGTGTA gave a binding signal (log2 normalized fluorescence) of -0.422.
In the case of TGACGTCGGGTA, the binding signal (log2 normalized fluorescence) is reported as -0.452.
With TGAGCAGGAGTA the binding signal (log2 normalized fluorescence) was -0.201.
For TGAACAGGAGTA, the binding signal (log2 normalized fluorescence) was 0.124.
For TGAAAGTCCGTA, the binding signal (log2 normalized fluorescence) was -1.11.
Sequence TGAAATGCCGTA has a binding signal (log2 normalized fluorescence) of 0.0999.
With AGACACGTGGTA the binding signal (log2 normalized fluorescence) was 3.08.
For TGAGTCAAAGTA, the binding signal (log2 normalized fluorescence) was -0.894.
TGACGATGTGTA gave a binding signal (log2 normalized fluorescence) of 0.182.
Sequence TGACACGCCATA has a binding signal (log2 normalized fluorescence) of 2.41.
Work on TGATTGATCGTA yielded a binding signal (log2 normalized fluorescence) of -0.808.
TGACATGTGGCC was tested, and the binding signal (log2 normalized fluorescence) was 2.99.
Work on TGAAAGACGGTA yielded a binding signal (log2 normalized fluorescence) of -0.709.
Sequence TGACACGCAGTA has a binding signal (log2 normalized fluorescence) of 1.7.
Work on TGAAGGCAAGTA yielded a binding signal (log2 normalized fluorescence) of -0.39.
For TGATTTCGGGTA, the binding signal (log2 normalized fluorescence) was -1.08.
TGAAAGGATGTA gave a binding signal (log2 normalized fluorescence) of -0.0682.
Work on CATGCCCGAAAC yielded a binding signal (log2 normalized fluorescence) of 2.98.
TGATATGCGGTA gave a binding signal (log2 normalized fluorescence) of -0.293.
Work on TGAATGGTCGTA yielded a binding signal (log2 normalized fluorescence) of 0.589.
TGAGTTCCTGTA was tested, and the binding signal (log2 normalized fluorescence) was -0.86.
Work on TAGCAGCCATGG yielded a binding signal (log2 normalized fluorescence) of 0.195.
TGACACCCTGTA gave a binding signal (log2 normalized fluorescence) of 0.532.
With TGATCAACGGTA the binding signal (log2 normalized fluorescence) was -0.193.
Sequence TGACGTAACGTA has a binding signal (log2 normalized fluorescence) of -0.528.
For TGAGGTCACGTA, the binding signal (log2 normalized fluorescence) was 0.139.
TGAAAGCGCGTA showed a binding signal (log2 normalized fluorescence) of 0.0231.
In the case of TGAAGGGAGGTA, the binding signal (log2 normalized fluorescence) is reported as -0.0934.
In the case of TGAGACGTGTTA, the binding signal (log2 normalized fluorescence) is reported as 0.962.
With TGATTACGAGTA the binding signal (log2 normalized fluorescence) was -0.632.
For TGATGCGTCGTA, the binding signal (log2 normalized fluorescence) was 0.0277.
TGAACGGAAGTA gave a binding signal (log2 normalized fluorescence) of -0.592.
TGGCACCTGGTA gave a binding signal (log2 normalized fluorescence) of 1.88.
TGATCCGATGTA showed a binding signal (log2 normalized fluorescence) of -0.358.
Sequence TCGCACGTGGTA has a binding signal (log2 normalized fluorescence) of 3.41.
Sequence TGAAGGGAAGTA has a binding signal (log2 normalized fluorescence) of -0.788.
For TGAAGAAGTGTA, the binding signal (log2 normalized fluorescence) was -0.474.
For TGGCACGTCGGA, the binding signal (log2 normalized fluorescence) was 1.33.
TGATATCGGGTA was tested, and the binding signal (log2 normalized fluorescence) was -1.02.
Work on TGACACGTTCCA yielded a binding signal (log2 normalized fluorescence) of 2.98.
TGACAAGTAGTC was tested, and the binding signal (log2 normalized fluorescence) was -0.542.
TGAATCGGAGTA gave a binding signal (log2 normalized fluorescence) of -1.26.
TGACCCCCAGTA was tested, and the binding signal (log2 normalized fluorescence) was -0.262.
TGACAGCGAGTA gave a binding signal (log2 normalized fluorescence) of 0.352.
Sequence TGAAACCGAGTA has a binding signal (log2 normalized fluorescence) of -0.736.
TGAACCAGAGTA gave a binding signal (log2 normalized fluorescence) of -0.489.
TGACGCACGGTA showed a binding signal (log2 normalized fluorescence) of 1.
Work on TGACCCTGGGTA yielded a binding signal (log2 normalized fluorescence) of -0.611.
TGACAACGTGTA was tested, and the binding signal (log2 normalized fluorescence) was 2.9.
For TGATAGAGAGTA, the binding signal (log2 normalized fluorescence) was -1.14.
TGAAAAGAGGTA showed a binding signal (log2 normalized fluorescence) of -0.907.
For CAGCACGTGGTA, the binding signal (log2 normalized fluorescence) was 3.24.
